The record followed here is PMC6919601, “Identification of Plasmodium dipeptidyl aminopeptidase allosteric inhibitors by high throughput screening” (PLoS ONE, 2019).

The whole screen tested about 110,000 compounds, of which about 230 (0.21%) showed an effect of 50% or more. The list shows a part of the results.
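Note: 30 min substrate incubation versus DMSO and 10 µM JCP410 controls.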

DPAP1, sequence (Q8IIJ9 whole entry, looked up): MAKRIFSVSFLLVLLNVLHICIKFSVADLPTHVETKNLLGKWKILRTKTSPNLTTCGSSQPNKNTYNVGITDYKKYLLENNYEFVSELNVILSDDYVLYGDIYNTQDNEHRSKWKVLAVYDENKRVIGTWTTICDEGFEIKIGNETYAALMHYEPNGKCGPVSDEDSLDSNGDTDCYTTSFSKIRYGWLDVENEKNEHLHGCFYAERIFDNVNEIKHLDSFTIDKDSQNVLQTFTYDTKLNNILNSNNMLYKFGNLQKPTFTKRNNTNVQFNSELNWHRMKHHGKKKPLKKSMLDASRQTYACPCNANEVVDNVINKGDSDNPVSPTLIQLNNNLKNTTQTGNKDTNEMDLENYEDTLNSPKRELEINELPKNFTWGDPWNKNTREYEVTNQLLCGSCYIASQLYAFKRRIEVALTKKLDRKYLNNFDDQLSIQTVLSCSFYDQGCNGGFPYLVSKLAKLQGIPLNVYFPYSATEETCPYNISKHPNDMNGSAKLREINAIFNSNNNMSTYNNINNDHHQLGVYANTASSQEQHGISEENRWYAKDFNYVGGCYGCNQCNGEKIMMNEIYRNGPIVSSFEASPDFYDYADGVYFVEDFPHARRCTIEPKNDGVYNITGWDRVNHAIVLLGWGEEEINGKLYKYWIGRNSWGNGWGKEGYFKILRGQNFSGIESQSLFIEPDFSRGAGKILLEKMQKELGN

The test addresses DPAP1 (Plasmodium falciparum, UniProt Q8IIJ9). In words: primary screen, percent inhibition; read by cleavage of a fluorogenic dipeptide substrate; higher = more effect of the substance. Details: species or system P. falciparum D10 trophozoite lysates; single well.
For the molecule `CN1C(=O)/C(=C\c2cc(Cl)ccc2O)S/C1=N/c1ccccc1`, the “% Inhibition @ 10 uM” value is given as 15%.
The result for `COc1ccc(Br)cc1CN(C)CCN(C)C` reads -0.833%; that for `O=C(Cn1ncc2c3ccccc3n(Cc3ccccc3)c2c1=O)NCCc1c[nH]c2ccccc12`, 0.137%; that for `COc1ccc(CCNS(=O)(=O)c2c(C)noc2C)cc1OC`, 0.675%.
In the case of `C/C(=N\c1cccc2ccccc12)C1=C(O)CC(C)(C)CC1=O` it was -5.34%.
In the case of `CCOC(=O)c1c(CN2CCCCC2)n(C)c2cc(Br)c(O)c(CN(C)C)c12` it was 0.778%.
For the molecule `Cc1[nH]nc2c1C(c1c[nH]nc1-c1ccc(F)cc1)C(C#N)=C(N)O2` (stereo not shown), the “% Inhibition @ 10 uM” value is -1.98%.
The result for `COc1ccccc1/C=C1N=C(/C=C/c2ccc(C)cc2)OC\1=O` reads 6.56%; that for `COc1cc(C(=O)O/N=C(\c2ccccc2)c2ccncc2)cc(OC)c1OC`, 1.52%; that for `COc1ccc2[nH]c3c(=O)n(CC(=O)N4CCN(Cc5ccccc5)CC4)c(=S)[nH]c3c2c1`, -0.495%.
The result for `CC(=O)Nc1ccc(C(=O)Nc2cccc(Cl)c2C)cc1` reads 3.16%; that for `COc1ccc(CC(=O)Nc2ccccc2C(=O)Nc2ccccc2)cc1`, 5.42%.
The result for `CC(C)C[C@H](NC(=O)c1cccc(-c2ccc(S(=O)(=O)NCc3ccccc3)s2)c1)C(=O)NCC#N` reads -3.48%.
Take `COc1ccc(C2(C(=O)NCCCN(C)C)CCOCC2)cc1`: the “% Inhibition @ 10 uM” value was -1.41%.
In the case of `CC1CCCC(NC(=O)c2cc(O)nc3ccc(S(=O)(=O)N4CCCCC4C)cc23)C1C` (stereo not shown) it was -3.12%.
In the case of `Nc1ccc(C(=O)N2CCN(c3cccc(Cl)c3Cl)CC2)c(C(=O)O)c1` it was -0.318%.
In the case of `CN(C)c1ccc(NC(=O)c2cccs2)cc1`, the “% Inhibition @ 10 uM” value was determined as 2.01%.
The result for `CC(=O)C1=C(C)N=c2s/c(=C/c3ccc4c(c3)OCO4)c(=O)n2C1c1ccc(N(C)C)cc1` (stereo not shown) reads -12.1%.
In the case of `CCOc1ccc(Sc2cc(C(=O)NCc3cccnc3)c3ccccc3n2)cc1` it was -5.67%.
In the case of `CCN(Cc1ccccc1)C(=O)c1ccccc1Br` it was -4.3%; in that of `CC(=O)c1cccc(NC=C2C(=O)N(C)C(=O)N(C)C2=O)c1`, 0.687%.
Regarding `CC(C)(C)c1ccc(C(=O)NCCC(=O)NCc2ccco2)cc1`, the “% Inhibition @ 10 uM” value is 1.17%.
The result for `CCOc1ccc(N(CC(=O)Nc2ccccc2F)S(C)(=O)=O)cc1` reads -7.34%; that for `O=C(O)c1ccc(Nc2nc3ccccc3nc2NS(=O)(=O)c2ccccc2)cc1`, 3.32%.
The result for `CS(=O)(=O)N(CCc1ccccc1)CC(=O)N1CCN(c2ccc(F)cc2)CC1` reads -3.33%; that for `Clc1ccc(N2N=CCC2c2ccccc2)cc1` (stereo not shown), 4.22%; that for `c1ccc(Cn2nc3ccccc3n2)cc1`, -2.62%.
In the case of `Cc1cccc(NC(=O)c2ccc([N+](=O)[O-])cc2)c1` it was 1.08%.
On to `CCOC(=O)c1c(NC(=O)c2ccc(OC)cc2)sc2c1CCC2`, for which the “% Inhibition @ 10 uM” value amounted to 23.6%.
The result for `CN1CCN(CC(O)Cn2c3ccccc3c3ccccc32)CC1` (stereo not shown) reads -4.44%.
In the case of `CCN(CC)S(=O)(=O)c1ccc(NC(=O)C2CC2)cc1` it was -4.63%; in that of `CCOC(=O)C1CCN(Cc2cccc(C(F)(F)F)c2)CC1`, 3.16%; in that of `CCCCC(=O)NCc1ccc(OC)cc1`, 0.13%.
In the case of `CC(CN1CCN(CC(c2ccc(F)cc2)N2CCN(C)CC2)CC1)C(=O)c1ccc(O)cc1` (stereo not shown) it was -4.54%; in that of `N#C/C(=C\c1ccccc1Cl)c1nc(-c2ccc([N+](=O)[O-])cc2)cs1`, -2%.
For `COc1cc(NS(=O)(=O)c2ccc(NC(=O)c3cc(Cl)sc3Cl)cc2)ncn1`, the “% Inhibition @ 10 uM” value is listed as -0.68%.
The result for `O=C(NCc1cccnc1)C1CCN(C(=O)c2cnn(-c3ccccc3)c2-n2cccc2)CC1` reads 3.4%; that for `O=C(O)c1ccc(-c2nnn(Cc3cccc(C(F)(F)F)c3)n2)cc1`, 1.74%; that for `CNC(C)c1ccc(C2CCCC2)cc1` (stereo not shown), 2.38%.
In the case of `CCOC(=O)c1sc2ncn(CC(=O)NCc3ccccc3)c(=O)c2c1C` it was -4.23%; in that of `O=C1C(Cl)=C(NCc2ccccc2)C(=O)N1c1ccccc1`, -0.99%.
As to `CC(C)(C)c1ccc(C(=O)Nc2nc[nH]n2)cc1`, the “% Inhibition @ 10 uM” value is 3.46%.
The result for `CCCCN1CCc2c([nH]c3ccccc23)C1=O` reads -5.46%.
In the case of `Cc1cccc(NC(=O)C(Cc2ccccc2)N2Cc3ccccc3C2=O)n1` (stereo not shown) it was 0.822%; in that of `O=C(N/C(=C\c1ccco1)C(=O)N1CCCCC1)c1ccc(Br)o1`, 2.36%.
The result for `CCCCN(C)S(=O)(=O)c1c(C(=O)OCC)c(C)n(C)c1C` reads 7.7%.
Consider `Cc1csc(NC(=O)CN(C)S(=O)(=O)c2cccc3cccnc23)n1`, for which the “% Inhibition @ 10 uM” value is -4.21%.
In the case of `CN(C)c1ccc(CN2CCC3(C=Cc4ccccc43)CC2)cc1` it was 7.87%.
The result for `CC(=O)c1ccc(NC2=NC(C)(C)Cc3cc(C)c(C)cc32)cc1` reads -8.38%; that for `O=C(Nc1cccnc1)c1cc2c(O)nc3ccccc3c2s1`, -0.499%; that for `CC1CCCC(NC(=O)CN2N=C(c3ccccc3)CCC2=O)C1C` (stereo not shown), -2.99%.
In the case of `CCOc1cc(CN)c(-n2cccc2)cc1OCC` it was -0.703%; in that of `Nc1nc(SCC(=O)NCCCO)nc2sc3c(c12)CCCC3`, 1.64%; in that of `Cc1ccc(C(=O)C2=C(O)C(=O)N(CC3CCCO3)C2c2cccc(Cl)c2)o1` (stereo not shown), -9.98%.
Turning to `Oc1c2c(nc3ccccc13)OCCC2`, the “% Inhibition @ 10 uM” value is reported as -1.98%.
On to `O=C(NCc1ccccc1)c1ccccc1NS(=O)(=O)c1ccc(Br)s1`, for which the “% Inhibition @ 10 uM” value is reported as -5.49%.
For the molecule `Cc1ccsc1C(C#N)NC(=O)[C@@H](NC(=O)OCc1ccccc1)C1CCCCC1` (stereo partly shown), the “% Inhibition @ 10 uM” value is listed as -1.61%.
The result for `COc1cc(OC)c(OC)cc1CN1CCN(c2cccc(C(F)(F)F)c2)CC1` reads -1.86%; that for `CCOCCO/C(O)=C1/C(C)=NC2=C(C(=O)CCC2)C1c1ccc(-c2ccccc2)cc1` (stereo not shown), 4.66%; that for `O=C(Cn1c(=O)c2ccccc2n2nncc12)NCc1ccccc1`, -1.01%.
In the case of `CCOC(=O)C1=C(C)OC(N)=C(C#N)C1c1ccccc1OCC` (stereo not shown) it was -2.15%; in that of `N#Cc1c(N)ccn(Cc2ccccc2)c1=O`, -4.31%.
The result for `Cc1ccc2sc(-c3ccc(NC(=O)C(C)(C)C)cc3)nc2c1` reads 2.76%; that for `N#Cc1cccc(S(=O)(=O)n2nc(-c3ccc(Cl)cc3)cc2N)c1`, 0.66%.
